Test results from the supplement of paper PMC10338343.
± gives the standard deviation. Only a part is listed here, and it is no random draw.

system: MIWI (PIWIL1) piRISC loaded with piRNA #1 (30 nt); test: pre-steady-state target cleavage rate (min^-1); MIWI and MILI are mouse PIWI proteins and EfPiwi is from a freshwater sponge; tags in brackets are library labels; higher = faster piRNA-guided slicing of the target; conditions: guide: piRNA #1 5'p-UGAGGUAGUAGGUUGUAUAGUAUCCAGAGG; auxiliary factor: 500 nM mouse GTSF1
Method in brief: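 Active affinity-purified piRISC (1 nM) loaded with one synthetic guide was mixed with a transcribed, DNA-blocked target RNA library (0.1 nM), with or without 500 nM GTSF1 partner protein, in HEPES–potassium acetate buffer at 33 °C for 0–8 or 0–960 min. Uncleaved targets were sequenced, normalised to depth and to weakly complementary targets, and pooled across three trials, with k3 capped at 0.0001 min^-1. The pre-steady-state cleavage rate was determined with a burst-and-steady-state fit.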

Sequence | pre-steady-state target cleavage rate
GGAGAGGAUACUAUUGAACCUACUACCUCA | 0.773 ± 0.058
GGAGUGGAUACUAUACAACCUACUACAUCA | 0.318 ± 0.034
GCUCUGGAUACUAUACAACCAACUACCUCA | 0.171 ± 0.018
GGACUGGAUUGAAUACAACCUACUACCUCA | 0.0364 ± 0.0079
GGAGACCUAAGUAUACAACCUACUACCUGA | 0.0479 ± 0.014
GGUCUCGGAUACUAUACAACCUACUACCUCA | 1.68 ± 0.1
GGAGACGAUACAUACAACCUACUACCUCA | 1.11 ± 0.1
GCUCUGGAUACUAUACAAGCUACUACCUCA | 1.4 ± 0.06
GGAGAGGAUACUAUUCAACCUACUACCACA | 1.02 ± 0.059
GGAGACCUUACUUUACAACCUACAACCUCA | 0.229 ± 0.029
GGUCUGGAUACUAUACAACCUACUGCCUCA | 1.03 ± 0.099
GGAGACCUAUCUAUACAACCUACAUCCUCA | 0.0946 ± 0.011
GGAGACCAUACUAUACAACCUACUUCCACA | 0.324 ± 0.04
CCUCUGGAUACUAUUCAACCUACUACGUCA | 1.7 ± 0.1
GGUCUGCAUACUAUACAACCAACUACCUCA | 0.133 ± 0.012
GGUCUGGAUACUAUACAACCUACUACCGCA | 0.374 ± 0.035
